Assay results taken from PubChem BioAssay (NCATS).
“And” between values parts separate entries of the source, which are not always exact repeats. Equal entries are not always repeated. The shares of active, inactive and inconclusive entries below differ from those in the screen. Where the call is inconclusive, the potency comes from a doubtful curve fit. The source made the active and inactive calls. Calls follow the shape of the dose curve; as a rule, active = well fitted curve in the direction sought with a large enough effect; inconclusive = small, poorly fitted or top-dose-only effect, or another doubt; inactive = no such curve, though single readings can be large; an effect the other way counts as inactive or inconclusive.

Test: Primary qHTS for inhibitors of nuclear receptor binding SET domain protein 2 (NSD2) in an isogenic RCH-ACV NSD2 p.E1099K mutant (9B) (AID 1645876)
Settings: RCH-ACV NSD2 E1099K (9B) viability, CellTiter-Glo, 72 h; series mostly up to 44.9 µM; activity change, negative = viability loss: at the top concentration
Also: nearly all actives have a fitted effect of over 70% in size.
Potency is read from the fitted curve at half-maximal effect; tags tell the direction and shape of the fitted curve.

| Structure (SMILES) | Potency |
| --- | --- |
| Nc1c2ccccc2nc2ccccc12 | active: 3.76 µM |
| Cc1ccc(C(=O)C(C)CN2CCCCC2)cc1 (configuration not stated) | inconclusive: 23.7 µM [inhibitor, single point] |
| C#C[C@]1(O)CC[C@H]2[C@@H]3CCC4=C/C(=N/O)CC[C@@H]4[C@H]3CC[C@@]21CC | inconclusive: 29 µM [inhibitor, single point] |
| CN(C)c1ccc(-c2nc3ncc(Cl)c(N4CCN(CC(=O)Nc5nccs5)CC4)c3[nH]2)cc1 | inconclusive: 1.02 µM [inhibitor, full curve] |
| c1cc(CN2CCCNCCNCCCNCC2)ccc1CN1CCCNCCNCCCNCC1 | inconclusive: 1.32 µM [inhibitor, partial curve, poor fit] |

Test: Primary qHTS for inhibitors of nuclear receptor binding SET domain protein 2 (NSD2) in an RCH-ACV wild type WT cells (2C) (AID 1645877); as to activity change, negative = cell killing: % is scaled to controls: 0 for no effect and ±100 for the full control effect
Settings: RCH-ACV (leukaemia line) NSD2 WT (2C) viability, CellTiter-Glo, 72 h; activity change, negative = cell killing: at 44.9 µM (top of the series) unless noted; series mostly up to 44.9 µM

| Structure (SMILES) | Potency | activity change, negative = cell killing |
| --- | --- | --- |
| Nc1nc(Nc2ccc(S(N)(=O)=O)cc2)nn1C(=O)c1c(F)cccc1F | active: 1.63 µM and active: 1.86 µM |  |
| CCN1CCN(Cc2ccc(-c3cc4c(N[C@H](C)c5ccccc5)ncnc4[nH]3)cc2)CC1 | active: 7.42 µM |  |
| Cc1ccc(C(N)=O)cc1Nc1nccc(-c2cn(C(C)C)c3cnccc23)n1 | active: 1.66 µM |  |
| NC1(C(=O)N[C@@H](CCO)c2ccc(Cl)cc2)CCN(c2ncnc3[nH]ccc23)CC1 | active: 2.35 µM |  |
| CC1(C)O[C@@H]2C[C@H]3[C@@H]4CCC5=CC(=O)CC[C@]5(C)[C@@]4(F)[C@@H](O)C[C@]3(C)[C@]2(C(=O)CCl)O1 |  | inactive: -72.8% |
| CCC(=O)c1c(O)cc(O)cc1O |  | inactive: -2.12% |
| O=C1OCCN1/N=C/c1ccc([N+](=O)[O-])o1 | inconclusive: 23.7 µM [inhibitor, single point] |  |
